# Measurements: the supplement of paper PMC12067093, “Discovery and optimisation of a covalent ligand for TRIM25 and its application to targeted protein ubiquitination” (Chemical Science, 2025)
# The full data set covers some 21,000 targets. This sample favours those with the largest changes.
# Compound: Cc1cc(ccc1-c1ccccc1)C(=O)N1CCCN(CC1)C(=O)CCl [compound 10]
# Assay: probe-labelled cysteine peptide fold change vs DMSO (competition) (log2 fold change); higher = less target engagement (more negative = stronger competition)
# Conditions: 10 µM; THP-1; incubation time: 4 h
# 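Note: competitive profiling in live THP-1 cells: cysteine peptides tagged with an iodoacetamide desthiobiotin (IA-DTB) probe, intensity after compound treatment relative to DMSO-treated cells.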
# Sequence of UniProt Q96CD2 (Q96CD2 whole entry, looked up): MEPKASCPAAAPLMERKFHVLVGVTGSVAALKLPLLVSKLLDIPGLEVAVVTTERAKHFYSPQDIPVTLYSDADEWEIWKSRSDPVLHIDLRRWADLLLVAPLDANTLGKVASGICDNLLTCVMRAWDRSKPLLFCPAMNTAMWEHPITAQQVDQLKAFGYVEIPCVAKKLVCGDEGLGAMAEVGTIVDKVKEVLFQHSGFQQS
# Sequence of UniProt Q8WUA2 (Q8WUA2 whole entry, looked up): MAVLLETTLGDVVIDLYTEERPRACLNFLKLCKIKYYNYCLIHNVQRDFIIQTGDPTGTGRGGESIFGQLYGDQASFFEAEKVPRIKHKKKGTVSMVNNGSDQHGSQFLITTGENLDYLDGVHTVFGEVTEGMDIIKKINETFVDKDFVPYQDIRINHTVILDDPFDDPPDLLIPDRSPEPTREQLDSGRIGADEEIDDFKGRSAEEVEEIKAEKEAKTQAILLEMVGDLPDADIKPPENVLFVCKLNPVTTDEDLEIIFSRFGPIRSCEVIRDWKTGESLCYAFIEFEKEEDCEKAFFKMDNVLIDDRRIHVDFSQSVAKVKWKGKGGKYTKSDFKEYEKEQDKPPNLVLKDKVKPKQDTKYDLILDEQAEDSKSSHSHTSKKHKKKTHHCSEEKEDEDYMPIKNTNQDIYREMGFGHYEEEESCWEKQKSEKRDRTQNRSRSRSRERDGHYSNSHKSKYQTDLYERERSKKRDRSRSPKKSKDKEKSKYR
# Sequence of UniProt O15067 (O15067 whole entry, looked up): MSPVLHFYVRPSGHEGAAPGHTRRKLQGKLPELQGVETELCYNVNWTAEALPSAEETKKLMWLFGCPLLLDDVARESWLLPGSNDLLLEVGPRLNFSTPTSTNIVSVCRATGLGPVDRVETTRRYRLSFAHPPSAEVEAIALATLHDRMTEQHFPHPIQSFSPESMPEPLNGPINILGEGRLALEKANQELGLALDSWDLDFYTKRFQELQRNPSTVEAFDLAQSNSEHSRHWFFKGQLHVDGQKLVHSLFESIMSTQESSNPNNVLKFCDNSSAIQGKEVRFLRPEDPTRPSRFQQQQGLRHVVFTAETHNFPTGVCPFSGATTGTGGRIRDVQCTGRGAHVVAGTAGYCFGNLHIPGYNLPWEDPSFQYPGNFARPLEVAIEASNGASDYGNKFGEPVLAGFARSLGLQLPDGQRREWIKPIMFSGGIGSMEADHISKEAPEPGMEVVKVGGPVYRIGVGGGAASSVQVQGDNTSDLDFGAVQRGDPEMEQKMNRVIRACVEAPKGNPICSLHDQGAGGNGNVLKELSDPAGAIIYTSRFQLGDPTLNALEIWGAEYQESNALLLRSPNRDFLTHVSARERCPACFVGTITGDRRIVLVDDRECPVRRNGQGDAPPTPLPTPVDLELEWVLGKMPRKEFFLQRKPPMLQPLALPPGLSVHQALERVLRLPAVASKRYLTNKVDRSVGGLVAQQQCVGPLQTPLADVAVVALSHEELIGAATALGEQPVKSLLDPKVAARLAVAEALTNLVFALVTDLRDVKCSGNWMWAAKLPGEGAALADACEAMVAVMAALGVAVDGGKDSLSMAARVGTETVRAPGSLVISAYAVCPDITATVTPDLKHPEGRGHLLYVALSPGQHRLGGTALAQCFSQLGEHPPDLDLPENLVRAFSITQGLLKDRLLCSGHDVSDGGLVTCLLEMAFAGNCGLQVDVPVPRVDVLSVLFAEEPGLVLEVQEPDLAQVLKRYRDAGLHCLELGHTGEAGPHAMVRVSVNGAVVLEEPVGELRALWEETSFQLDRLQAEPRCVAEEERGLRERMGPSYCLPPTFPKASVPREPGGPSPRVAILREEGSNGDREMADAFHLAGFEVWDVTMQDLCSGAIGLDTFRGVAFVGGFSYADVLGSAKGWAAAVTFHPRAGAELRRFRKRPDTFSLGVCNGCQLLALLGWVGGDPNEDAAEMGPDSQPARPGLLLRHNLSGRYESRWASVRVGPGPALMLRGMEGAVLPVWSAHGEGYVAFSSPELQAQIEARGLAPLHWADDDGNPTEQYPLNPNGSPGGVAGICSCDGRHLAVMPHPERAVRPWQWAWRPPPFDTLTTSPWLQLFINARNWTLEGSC
# Sequence of UniProt O94880 (O94880 whole entry, looked up): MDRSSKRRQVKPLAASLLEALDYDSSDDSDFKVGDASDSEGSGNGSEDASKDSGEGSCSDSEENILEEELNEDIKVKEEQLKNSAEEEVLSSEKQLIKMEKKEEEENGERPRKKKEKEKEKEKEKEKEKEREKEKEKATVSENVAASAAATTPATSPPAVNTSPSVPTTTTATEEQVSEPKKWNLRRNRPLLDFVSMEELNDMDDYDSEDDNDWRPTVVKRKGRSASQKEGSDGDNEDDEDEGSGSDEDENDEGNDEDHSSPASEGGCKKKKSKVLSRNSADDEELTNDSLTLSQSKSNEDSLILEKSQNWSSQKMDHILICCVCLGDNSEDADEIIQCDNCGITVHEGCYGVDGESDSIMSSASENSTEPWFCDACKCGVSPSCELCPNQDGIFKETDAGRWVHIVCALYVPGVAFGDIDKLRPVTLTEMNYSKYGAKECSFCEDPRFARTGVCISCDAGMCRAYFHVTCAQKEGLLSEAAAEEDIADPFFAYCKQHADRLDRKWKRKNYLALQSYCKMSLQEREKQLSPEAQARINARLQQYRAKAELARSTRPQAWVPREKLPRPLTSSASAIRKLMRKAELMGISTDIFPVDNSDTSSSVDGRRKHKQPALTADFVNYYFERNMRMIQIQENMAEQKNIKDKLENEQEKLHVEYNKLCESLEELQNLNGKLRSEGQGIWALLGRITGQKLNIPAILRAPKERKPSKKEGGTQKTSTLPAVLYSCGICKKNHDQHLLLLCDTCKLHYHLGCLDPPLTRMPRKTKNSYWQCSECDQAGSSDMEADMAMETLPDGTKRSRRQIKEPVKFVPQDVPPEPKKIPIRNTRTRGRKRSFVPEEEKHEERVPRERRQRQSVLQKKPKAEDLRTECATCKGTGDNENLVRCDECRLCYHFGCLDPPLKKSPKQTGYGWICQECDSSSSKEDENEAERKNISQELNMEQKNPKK
# Sequence of UniProt O00329 (O00329 whole entry, looked up): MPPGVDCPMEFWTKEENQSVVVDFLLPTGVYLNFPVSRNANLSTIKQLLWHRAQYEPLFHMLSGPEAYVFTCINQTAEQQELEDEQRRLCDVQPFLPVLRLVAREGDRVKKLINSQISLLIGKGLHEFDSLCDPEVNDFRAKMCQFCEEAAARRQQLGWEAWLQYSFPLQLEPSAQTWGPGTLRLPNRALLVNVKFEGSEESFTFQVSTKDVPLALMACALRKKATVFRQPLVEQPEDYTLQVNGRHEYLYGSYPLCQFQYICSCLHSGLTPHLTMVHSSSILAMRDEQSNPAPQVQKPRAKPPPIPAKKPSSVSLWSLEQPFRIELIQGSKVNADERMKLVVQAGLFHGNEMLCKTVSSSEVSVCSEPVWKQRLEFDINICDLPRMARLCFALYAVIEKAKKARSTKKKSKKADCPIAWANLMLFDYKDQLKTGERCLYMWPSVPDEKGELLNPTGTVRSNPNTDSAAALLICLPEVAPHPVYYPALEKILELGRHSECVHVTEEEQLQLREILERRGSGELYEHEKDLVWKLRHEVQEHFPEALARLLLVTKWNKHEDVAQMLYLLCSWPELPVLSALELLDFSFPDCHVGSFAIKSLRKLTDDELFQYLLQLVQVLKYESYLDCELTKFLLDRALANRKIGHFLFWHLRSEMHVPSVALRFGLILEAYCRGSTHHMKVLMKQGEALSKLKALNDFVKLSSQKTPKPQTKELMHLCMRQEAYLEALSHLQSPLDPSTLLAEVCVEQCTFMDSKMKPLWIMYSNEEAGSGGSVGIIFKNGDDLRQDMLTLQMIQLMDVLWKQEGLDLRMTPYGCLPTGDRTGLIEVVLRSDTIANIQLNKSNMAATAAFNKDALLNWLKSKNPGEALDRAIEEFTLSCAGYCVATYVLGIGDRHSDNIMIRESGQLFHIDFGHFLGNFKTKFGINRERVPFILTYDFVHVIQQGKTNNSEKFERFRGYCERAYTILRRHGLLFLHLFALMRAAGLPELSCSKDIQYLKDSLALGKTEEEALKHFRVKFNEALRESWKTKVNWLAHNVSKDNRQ
# Sequence of UniProt Q5MIZ7 (Q5MIZ7 whole entry): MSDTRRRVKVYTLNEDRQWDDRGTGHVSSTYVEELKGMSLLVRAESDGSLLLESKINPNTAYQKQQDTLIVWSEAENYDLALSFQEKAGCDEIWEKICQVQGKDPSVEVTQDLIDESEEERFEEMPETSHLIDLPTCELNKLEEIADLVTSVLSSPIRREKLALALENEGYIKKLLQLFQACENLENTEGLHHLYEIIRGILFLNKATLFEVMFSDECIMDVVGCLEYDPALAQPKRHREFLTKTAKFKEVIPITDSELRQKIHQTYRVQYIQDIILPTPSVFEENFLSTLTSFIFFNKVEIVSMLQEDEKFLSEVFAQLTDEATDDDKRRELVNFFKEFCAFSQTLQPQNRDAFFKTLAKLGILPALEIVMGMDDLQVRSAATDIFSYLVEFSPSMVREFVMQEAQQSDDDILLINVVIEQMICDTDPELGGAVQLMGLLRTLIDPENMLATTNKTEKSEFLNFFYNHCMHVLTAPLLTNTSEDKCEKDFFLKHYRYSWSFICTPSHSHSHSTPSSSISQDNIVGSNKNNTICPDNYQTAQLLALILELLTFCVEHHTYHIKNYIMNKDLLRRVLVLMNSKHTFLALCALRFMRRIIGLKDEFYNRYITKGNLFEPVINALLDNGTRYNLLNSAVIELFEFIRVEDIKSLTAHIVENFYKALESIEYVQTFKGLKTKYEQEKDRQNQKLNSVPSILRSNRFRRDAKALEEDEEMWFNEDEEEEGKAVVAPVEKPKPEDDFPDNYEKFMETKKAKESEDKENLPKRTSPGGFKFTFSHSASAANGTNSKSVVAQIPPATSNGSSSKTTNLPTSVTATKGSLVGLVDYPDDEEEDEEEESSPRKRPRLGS
row,Target,probe-labelled cysteine peptide fold change
1,PHAX_Q9H814_51_AFQNTATACAPVSHYR (UniProt Q9H814),-0.182
2,PPP4C_P60510_130_QITQVYGFYDECLR<|>PPP2CB_P62714_133_QITQVYGFYDECLR<|>PPP2CA_P67775_133_QITQVYGFYDECLR (UniProt P67775+P62714+P60510),0.232
3,PREP_P48147_352_SNFLVLCYLHDVK (UniProt P48147),0.222
4,PLXNB2_O15031_364_SFPCGSEHLPYPLGSR (UniProt O15031),0.049
5,PPCDC_Q96CD2_166_AFGYVEIPCVAK (UniProt Q96CD2),-0.138
6,POLRMT_O00411_591_LLAEMLVQATQMPCSLDKPHR (UniProt O00411),-0.45
7,PPP2R5D_Q14738_17_CTAKPSSSGK (UniProt Q14738),-0.207
8,POLR3E_Q9NVU0_676_LTQECGEDLSK (UniProt Q9NVU0),0.0254
9,PIK3CD_O00329_718_ELMHLCMR (UniProt O00329),0.197
10,PRDX6_P30041_91_DINAYNCEEPTEK (UniProt P30041),-0.219
11,PLCB3_Q01970_193_RVETALESCGLK (UniProt Q01970),-0.0214
12,PPIB_P23284_202_DVIIADCGKIEVEKPFAIAK (UniProt P23284),-0.622
13,PDS5A_Q29RF7_686_VLSFTHPTSFHSAETYESLLQCLR (UniProt Q29RF7),-0.155
14,PMM1_Q92871_145_SCTLEER (UniProt Q92871),-0.16
15,PLCB3_Q01970_193_VETALESCGLK (UniProt Q01970),0.0155
16,POLRMT_O00411_413_VCVVSVEKPTLPSK (UniProt O00411),0.19
17,PML_P29590_57+60_CQQCQAEAK (UniProt P29590),-0.0779
18,PHF14_O94880_874_AEDLRTECATCK (UniProt O94880),0.0189
19,PGP_A6NDG6_272_TVMVGDRLDTDILLGATCGLK (UniProt A6NDG6),0.0484
20,PCM1_Q15154_1779_SDISDQEEDEESEGCPVSINLSK (UniProt Q15154),-0.382

row,Target,probe-labelled cysteine peptide fold change
1,PPP2R1A_P30153_512_MTTLFCINVLSEVCGQDITTK (UniProt P30153),0.146
2,PCIF1_Q9H4Z3_29_EEASLLSHSPGTSNQSQPCSPK (UniProt Q9H4Z3),-0.369
3,PMM2_O15305_9_AAPGPALCLFDVDGTLTAPR (UniProt O15305),0.0884
4,POLD1_P28340_193_ELTGPAVLAVELCSR (UniProt P28340),0.0865
5,PGGT1B_P53609_147_EACLAGLR (UniProt P53609),0.157
6,PLD4_Q96BZ4_502_YAVGLDGQAPGQDCVWQG (UniProt Q96BZ4),0.0642
7,PLPBP_O94903_15_AGSMSAELGVGCALR (UniProt O94903),-0.217
8,POLR2B_P30876_1093_FGEMERDCQIAHGAAQFLR (UniProt P30876),-0.399
9,PPIG_Q13427_33_VVFELFSDVCPK (UniProt Q13427),0.155
10,PLEKHA2_Q9HB19_332_SISLTRPGSSSLSSGPNSILCR (UniProt Q9HB19),-0.321
11,PDCD11_Q14690_361_LSCQNLGAVLDDVPVQGFFKK (UniProt Q14690),-0.287
12,PPP4R3B_Q5MIZ7_182_LLQLFQACENLENTEGLHHLYEIIR (UniProt Q5MIZ7),0.229
13,PLXNB2_O15031_112_LVECGSLFK (UniProt O15031),-0.122
14,PDS5A_Q29RF7_532_QPTSEANCSAMFGK (UniProt Q29RF7),-0.362
15,PFAS_O15067_270_FCDNSSAIQGK (UniProt O15067),-3.92
16,PFKP_Q01813_123_GITNLCVIGGDGSLTGANLFR (UniProt Q01813),-0.126
17,PPIL4_Q8WUA2_392_THHCSEEK (UniProt Q8WUA2),0.0136
18,PDIA3_P30101_60_ISDTGSAGLMLVEFFAPWCGHCK (UniProt P30101),-0.259
19,PKM_P14618_326_PVICATQMLESMIK (UniProt P14618),-0.25
20,PHF23_Q9BUL5-4_5_MPGDCR (UniProt Q9BUL5),0.399

# Same assay, conditions: 50 µM; THP-1; incubation time: 4 h
row,Target,probe-labelled cysteine peptide fold change
1,PHAX_Q9H814_51_AFQNTATACAPVSHYR (UniProt Q9H814),-0.271
2,PPP4C_P60510_130_QITQVYGFYDECLR<|>PPP2CB_P62714_133_QITQVYGFYDECLR<|>PPP2CA_P67775_133_QITQVYGFYDECLR (UniProt P67775+P62714+P60510),0.371
3,PREP_P48147_352_SNFLVLCYLHDVK (UniProt P48147),0.265
4,PLXNB2_O15031_364_SFPCGSEHLPYPLGSR (UniProt O15031),0.128
5,PPCDC_Q96CD2_166_AFGYVEIPCVAK (UniProt Q96CD2),-0.136
6,POLRMT_O00411_591_LLAEMLVQATQMPCSLDKPHR (UniProt O00411),-1.55
7,PPP2R5D_Q14738_17_CTAKPSSSGK (UniProt Q14738),-1.72
8,POLR3E_Q9NVU0_676_LTQECGEDLSK (UniProt Q9NVU0),-0.0154
9,PIK3CD_O00329_718_ELMHLCMR (UniProt O00329),-0.0661
10,PRDX6_P30041_91_DINAYNCEEPTEK (UniProt P30041),0.0432
11,PLCB3_Q01970_193_RVETALESCGLK (UniProt Q01970),0.112
12,PPIB_P23284_202_DVIIADCGKIEVEKPFAIAK (UniProt P23284),-1.16
13,PDS5A_Q29RF7_686_VLSFTHPTSFHSAETYESLLQCLR (UniProt Q29RF7),-0.0261
14,PMM1_Q92871_145_SCTLEER (UniProt Q92871),0.0348
15,PLCB3_Q01970_193_VETALESCGLK (UniProt Q01970),-0.181
16,POLRMT_O00411_413_VCVVSVEKPTLPSK (UniProt O00411),-0.636
17,PML_P29590_57+60_CQQCQAEAK (UniProt P29590),-0.261
18,PHF14_O94880_874_AEDLRTECATCK (UniProt O94880),-0.327
19,PGP_A6NDG6_272_TVMVGDRLDTDILLGATCGLK (UniProt A6NDG6),0.0355
20,PCM1_Q15154_1779_SDISDQEEDEESEGCPVSINLSK (UniProt Q15154),-0.502

row,Target,probe-labelled cysteine peptide fold change
1,PPP2R1A_P30153_512_MTTLFCINVLSEVCGQDITTK (UniProt P30153),0.0625
2,PCIF1_Q9H4Z3_29_EEASLLSHSPGTSNQSQPCSPK (UniProt Q9H4Z3),-0.693
3,PMM2_O15305_9_AAPGPALCLFDVDGTLTAPR (UniProt O15305),-0.0452
4,POLD1_P28340_193_ELTGPAVLAVELCSR (UniProt P28340),0.273
5,PGGT1B_P53609_147_EACLAGLR (UniProt P53609),-0.0399
6,PLD4_Q96BZ4_502_YAVGLDGQAPGQDCVWQG (UniProt Q96BZ4),0.451
7,PLPBP_O94903_15_AGSMSAELGVGCALR (UniProt O94903),-0.942
8,POLR2B_P30876_1093_FGEMERDCQIAHGAAQFLR (UniProt P30876),-1.16
9,PPIG_Q13427_33_VVFELFSDVCPK (UniProt Q13427),-0.397
10,PLEKHA2_Q9HB19_332_SISLTRPGSSSLSSGPNSILCR (UniProt Q9HB19),-1.3
11,PDCD11_Q14690_361_LSCQNLGAVLDDVPVQGFFKK (UniProt Q14690),-2.05
12,PPP4R3B_Q5MIZ7_182_LLQLFQACENLENTEGLHHLYEIIR (UniProt Q5MIZ7),0.561
13,PLXNB2_O15031_112_LVECGSLFK (UniProt O15031),-0.138
14,PDS5A_Q29RF7_532_QPTSEANCSAMFGK (UniProt Q29RF7),-1.84
15,PFAS_O15067_270_FCDNSSAIQGK (UniProt O15067),-3.29
16,PFKP_Q01813_123_GITNLCVIGGDGSLTGANLFR (UniProt Q01813),0.34
17,PPIL4_Q8WUA2_392_THHCSEEK (UniProt Q8WUA2),0.377
18,PDIA3_P30101_60_ISDTGSAGLMLVEFFAPWCGHCK (UniProt P30101),-0.597
19,PKM_P14618_326_PVICATQMLESMIK (UniProt P14618),0.00777
20,PHF23_Q9BUL5-4_5_MPGDCR (UniProt Q9BUL5),1.2
